# Test results: PubChem BioAssay AID686970 (National Center for Advancing Translational Sciences (NCATS), 2013)
# Screen size: about 360,000 compounds; about 6,000 (1.7%) were called active. Inconclusive results, whose numbers are uncertain, are shown with a selection of clear calls. Calls come from the whole dose curve; as a rule, active = well fitted cell-killing curve with a large enough effect; inconclusive = small, poorly fitted or top-dose-only effect, or effect the other way; inactive = flat fitted curve, though single readings scatter. No potency is given beside an inconclusive call; the fits are too rough.
# Assay: qHTS for induction of synthetic lethality in tumor cells producing 2HG: qHTS for the HT-1080-NT fibrosarcoma cell line;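 note: NT is the 2HG producing partner of a matched IDH1 knockdown line; nearly all actives have a fitted effect of over 55% in size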;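 for activity, negative = less viability: 0% = DMSO-treated cells and -100% = media-only wells without cells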
# Settings: HT-1080-NT fibrosarcoma viability, CellTiter-Glo ATP luminescence, 48 h; activity, negative = less viability: at 46.1 µM (top of the series) unless noted
# How it was run: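 Luminescent CellTiter-Glo readout after 48 hours of compound exposure at 37 degrees C defined viability of HT-1080-NT cells. Activity was normalized to DMSO wells and cell-free media wells; concentration-response curves were fitted and assigned curve classes.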
# Potency is the fitted concentration of half-maximal effect; tags give direction and shape of the fitted curve.
SMILES,Potency,"activity, negative = less viability"
CCOC(=O)c1nnn(-c2ccc([N+](=O)[O-])cc2[N+](=O)[O-])c1C,"inconclusive [cytotoxic, single point]",–
COC(=O)c1ccc(C(=O)OC)c(NC(=O)CN2CCN(c3ccccc3OC)CC2)c1,inactive,–
OC(c1ccc(F)c(F)c1)c1nc(-c2cccc(F)c2)cs1 (stereo unspecified),"inconclusive [cytotoxic, single point]",–
Cc1ccc(-c2nc(NC(=O)c3nn(C)cc3[N+](=O)[O-])sc2C)cc1C,active: 20.6 µM,–
Cc1cccc(C2=NN(c3ccccc3)[C@H](CO)[C@H]2c2ccc(F)cc2)c1,"inconclusive [cytotoxic, single point]",–
Cn1cc([N+](=O)[O-])c(C(=O)N(Cc2ccccc2)Cc2ccccc2)n1,inactive,–
CCN(CC)C(=O)c1cccc(-c2csc(C(O)c3ccc(F)c(F)c3)n2)c1 (stereo unspecified),"inconclusive [cytotoxic, partial curve]",–
Cc1ccc(NC(=O)CSc2nn(-c3ccc(Cl)cc3)c(=S)s2)cc1S(=O)(=O)N(C)C,inactive,–
Cc1cc(C)c(N2CCN(S(=O)(=O)N3CCCCCC3)CC2)c(C)c1,"inconclusive [cytotoxic, single point]",–
CCCCN(C)C(=O)c1ccc(Nc2nc(C(N)Cc3ccccc3)cs2)nc1 (stereo unspecified),active: 23.1 µM,–
COc1ccc(CN(C(=O)CN2C(=O)C(C)Oc3ccccc32)C2CCCC2)c(OC)c1 (stereo unspecified),"inconclusive [cytotoxic, single point]",–
CCn1c(-c2csc(-c3ccc(Cl)cc3)n2)n[nH]c1=S,"inconclusive [rising, partial curve]",–
Cn1cc(C(=O)Nc2ccc(F)c(Cl)c2)cn1,"inconclusive [rising, full curve]",–
Cc1ccc(NC(=S)NNC(=O)c2c(Cl)c(C)nn2C)cc1,"inconclusive [cytotoxic, single point]",–
COc1cccc(-n2c(SCC(=O)NC3CCS(=O)(=O)C3)nc3ccccc3c2=O)c1 (stereo unspecified),inactive,–
C=CCc1cccc2cc(C(=O)NCc3cccnc3)c(=O)oc12,inactive,–
CN1C(=O)/C(=C/c2cccc(Cl)c2)Sc2ccc(C(=O)N3CCOCC3)cc21,inactive,–
O=C(CCC(=O)Nc1ccc(Cl)cc1Cl)N/N=C/c1ccc([N+](=O)[O-])o1,"inconclusive [cytotoxic, single point]",–
CCCc1c(-c2cccc(Cl)c2)ncn1Cc1cccc(-c2ccccc2)c1,"inconclusive [cytotoxic, single point]",–
Cc1ccnc(NC(c2ccccc2)c2ccc3cccnc3c2O)c1 (stereo unspecified),–,inconclusive: 0% [cytotoxic]
CC(C)Cc1nc2ccccc2n1CCc1ccccc1,"inconclusive [cytotoxic, single point]",–
COc1ccc(C(=O)c2oc3ccc(OC)cc3c2NC(C)=O)cc1,"inconclusive [cytotoxic, single point]",–
CCOc1ccc(NC(=O)CN(C)C(=O)CCc2ccccc2Cl)cc1OCC,inactive,–

SMILES,Potency,"activity, negative = less viability"
CCC(CO)[n+]1c(C)cc(/C=C2\Sc3ccccc3N2Cc2ccccc2)cc1C (stereo unspecified),active: 3.26 µM,–
O=S(=O)(/N=C(/Nc1ccc(Cl)c(S(=O)(=O)Nc2ccccc2Cl)c1)c1ccc(F)cc1)c1ccccc1,"inconclusive [cytotoxic, single point]",–
COc1ccccc1-c1nnc(Nc2nc3c(OC)cccc3s2)o1,active: 0.92 µM,–
CCN(CC)c1ccc2c(Cl)c(Br)c(=O)oc2c1,active: 18.4 µM,–
O=c1[nH]c(SCCOc2cccc3ccccc23)nc2ccccc12,–,inconclusive: -20.7% [cytotoxic]
COC(=O)c1ccc(Cn2cc(Cl)cn2)cc1,inactive,–
Cc1c(C(=O)N(Cc2ccccc2)C(C)C)oc2ccc(S(=O)(=O)N3CCOCC3)cc12,"inconclusive [cytotoxic, single point]",–
COC(=O)c1ccc(S(=O)(=O)N2CCCN(Cc3cccc(Br)c3F)CC2)n1C,"inconclusive [cytotoxic, single point]",–
C/C(CCc1ccc2c(c1)OCO2)=N\N=C(/N)SC1CC(=O)N(c2ccc(Cl)cc2)C1=O (stereo unspecified),"inconclusive [cytotoxic, single point]",–
COc1cccc(NC(=O)Nc2nnc(COCCO)s2)c1,inactive,–
COc1ccc(S(=O)(=O)NC2CCCC2)cc1NC(C)=O,inactive,–
C=CC[C@H](CC(=O)OC(C)(C)C)C(=O)OC[C@@H]1CCCN1C(=O)[C@H](CC=C)CC(=O)N[C@H](CO)Cc1ccccc1,inactive,–
O=C(Nc1ccc2c(c1)CCC2)C1CCN(c2c3c(nc4ncnn24)CCC3)CC1,"inconclusive [cytotoxic, single point]",–
O=C(Nc1ccc(F)cc1)c1cc(S(=O)(=O)N2CCOCC2)cs1,inactive,–
CN(Cc1ccc(Cl)cc1)C(C(=O)NC1CCCCC1)c1ccnc2ccccc12 (stereo unspecified),"inconclusive [cytotoxic, single point]",–
O=C(NNC(=O)c1ccc([N+](=O)[O-])o1)c1ccccc1,"inconclusive [cytotoxic, single point]",–
CC(=O)Nc1ccc2nc(NC(=O)c3ccco3)sc2c1,inactive,–
CCc1ccc(-c2cc(C)no2)cc1S(=O)(=O)N1CCN(c2ccccc2)CC1,"inconclusive [cytotoxic, partial curve]",–
CCC(=O)NC(c1ccccc1OC)c1ccc2cccnc2c1O (stereo unspecified),active: 0.794 µM,–
N#Cc1ccccc1Sc1ccccc1C(=O)Nc1ccc(Br)cc1,inactive,–
O=C(O)c1ccc(S(=O)(=O)c2ccc3c(c2)C(=O)N(NC(=O)c2ccncc2)C3=O)cc1,–,inconclusive: 2.06% [cytotoxic]
O=C(O)c1cccc(Cn2c(Cl)c(/C=N/Nc3ccccc3)sc2=O)c1,"inconclusive [cytotoxic, full curve]",–
Cc1cc2nc(-c3ccc(SCC(=O)Nc4nccs4)nc3)[nH]c2cc1C,"inconclusive [cytotoxic, single point]",–
